Experimental data published in publication PMC4336329 (PLoS ONE, 2015).
About 2,200 (0.71%) of roughly 310,000 compounds showed an effect of 50% or more. Effects have a minus sign here. The list shows a part of the results.

The compounds below were run against human ether-à-go-go-related gene (hERG) potassium channel (human, UniProt Q12809) (assay: primary screen, population patch clamp on CHO cells stably expressing hERG).
human ether-à-go-go-related gene (hERG) potassium channel, sequence (Q12809 whole entry, looked up): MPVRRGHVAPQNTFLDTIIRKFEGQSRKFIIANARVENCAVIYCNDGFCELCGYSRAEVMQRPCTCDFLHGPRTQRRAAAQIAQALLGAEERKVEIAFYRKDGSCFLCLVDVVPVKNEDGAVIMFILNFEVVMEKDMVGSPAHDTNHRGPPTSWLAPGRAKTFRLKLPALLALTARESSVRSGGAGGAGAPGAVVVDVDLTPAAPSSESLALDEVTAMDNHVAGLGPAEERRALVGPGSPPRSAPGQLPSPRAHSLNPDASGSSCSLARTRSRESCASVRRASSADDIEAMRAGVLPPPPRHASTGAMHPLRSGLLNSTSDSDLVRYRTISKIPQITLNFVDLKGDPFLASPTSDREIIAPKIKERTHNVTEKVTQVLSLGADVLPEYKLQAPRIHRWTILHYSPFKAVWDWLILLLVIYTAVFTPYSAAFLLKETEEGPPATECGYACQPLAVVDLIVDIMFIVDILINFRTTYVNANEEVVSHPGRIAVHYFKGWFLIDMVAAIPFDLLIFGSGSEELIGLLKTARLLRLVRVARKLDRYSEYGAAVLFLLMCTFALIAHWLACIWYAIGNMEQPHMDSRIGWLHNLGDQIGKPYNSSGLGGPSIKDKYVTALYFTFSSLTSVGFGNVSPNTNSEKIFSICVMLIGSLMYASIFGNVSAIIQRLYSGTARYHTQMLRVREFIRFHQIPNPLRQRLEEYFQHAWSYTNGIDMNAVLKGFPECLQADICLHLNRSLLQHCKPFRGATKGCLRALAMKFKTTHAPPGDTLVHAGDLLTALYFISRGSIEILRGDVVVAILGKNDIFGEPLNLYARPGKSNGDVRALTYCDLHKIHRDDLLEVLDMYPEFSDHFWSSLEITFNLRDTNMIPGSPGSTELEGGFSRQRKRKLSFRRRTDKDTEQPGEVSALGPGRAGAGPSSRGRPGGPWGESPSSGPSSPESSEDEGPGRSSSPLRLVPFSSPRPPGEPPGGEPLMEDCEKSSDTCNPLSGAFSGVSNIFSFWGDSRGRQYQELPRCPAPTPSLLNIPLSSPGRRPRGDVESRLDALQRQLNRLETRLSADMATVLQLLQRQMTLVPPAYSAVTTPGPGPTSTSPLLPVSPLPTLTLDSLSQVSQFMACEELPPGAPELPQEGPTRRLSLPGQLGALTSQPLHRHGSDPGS

SMILES	hERG current change (%, negative = inhibition) at 1uM
Cc1cccc(C)c1NC(=O)CN1CCN(CC(=O)NCC2(N3CCCCC3)CCCCC2)CC1	2.79%
CC(C(=O)Nc1ccccc1F)N1CCN(C)CC1.O=C(O)C(=O)O (centres unmarked)	12.8%
CN1/C(=C\C=N\NC(=O)c2ccc(O)cc2)C(C)(C)c2ccccc21	-8.49%
C=CCn1c(SCC(=O)NC2CCCC2)nnc1-c1cccnc1	14.5%
O=C(Nc1cccc(-c2ccc(N3CCOCC3)nn2)c1)c1ccc([N+](=O)[O-])cc1	-7.8%
COC(=O)Cc1[nH]n(-c2nc3ccccc3s2)c(=O)c1C(C)=Nc1ccc(C)cc1	13.2%
CC(C)Cn1c(N)c(C(=O)COC(=O)c2cnccn2)c(=O)n(C)c1=O	-4.07%
O=C(NCc1ccco1)c1ccc2c(c1)C(=O)N(C1CCCCC1)C2=O	-24.9%
O=C(Cn1ncc2c([nH]c3ccccc32)c1=O)N1CCCCC1	13.8%
CCOc1cc(C)c(Cl)cc1S(=O)(=O)n1cnc2ccccc21	-7.1%
Cc1cc(C(=O)N/N=C/C=C/c2cccc([N+](=O)[O-])c2)n[nH]1	5.05%
CC(C)CCNC(=O)c1cccc(S(=O)(=O)N2CCc3ccccc32)c1	6.72%
CCOC(=O)C(NC(=O)c1ccc(OC)cc1)(N1CCCC1=O)C(F)(F)F (centres unmarked)	12.5%
CCC(C(=O)Nc1ccsc1C(=O)OC)c1ccccc1 (centres unmarked)	13%
CCOc1ccc2oc(C(=O)N(Cc3nnc(-c4ccccc4Cl)o3)C3CC3)c(C)c2c1	-2.03%
COc1ccc(CCNCc2csc3nc4ccccc4n23)cc1OC.Cl	9.39%
COc1ccc2c(O)c(-c3c(C)cc(C)cc3C)c(=O)[nH]c2c1	4.58%
O=C(NCC(=O)N(c1ccc(F)cc1)C(C(=O)NC1CCCC1)c1cccnc1)c1ccco1 (centres unmarked)	11.3%
CCN(CC)S(=O)(=O)c1ccc(N2CCOCC2)c(NS(=O)(=O)c2ccc(OC)cc2)c1	5.01%
O=C(O)c1cncc(Br)c1	8.7%
Cc1ccc(NC(=O)C2CCN(S(=O)(=O)c3ccc4c(c3)NC(=O)C(C)S4)CC2)cc1C (centres unmarked)	9.41%
CCCCc1nnc(NC(=O)COC)s1	16.3%

SMILES	hERG current change (%, negative = inhibition) at 1uM
CC(C)CNC(=O)C1CCCN(C(=O)NCc2ccccc2)C1 (centres unmarked)	0.705%
Cc1ccc(C(=O)Nc2cccnc2)cc1S(=O)(=O)N1CCCC1	11.5%
O=C(Nc1ccc2c(c1)OCO2)c1sc2cc(Cl)ccc2c1Cl	9.08%
O=C(CSc1ccccn1)N1CCN(C(=O)CSc2ccccn2)CC1	4.15%
O=C(NCCC1CCCCN1S(=O)(=O)c1ccc(F)cc1)C(=O)NCCN1CCOCC1 (centres unmarked)	-14.4%
CCOc1ccc(/C(O)=C2/C(=O)C(=O)N(CCOCCO)C2c2cccnc2)cc1 (centres unmarked)	23.2%
CC(=O)Nc1cccc(C(=O)OC(C)C(=O)Nc2ccc(S(=O)(=O)N3CCCC3)cc2)c1 (centres unmarked)	17.4%
O=C(NNC(=O)c1ccc([N+](=O)[O-])cc1C(=O)O)c1ccncc1	7.54%
CN(C(=O)COC(=O)Cc1c(F)cccc1Cl)c1c(N)n(Cc2ccccc2)c(=O)[nH]c1=O	12.1%
CCn1nc(C)cc1C(=O)Sc1cccc(Br)c1	11.4%
CCOc1ncccc1C(=O)NNC(=O)c1csc(N2CCOCC2)n1	21.1%
COCCNC(=O)c1snc2ccc(Cl)cc12	17.1%
Cc1cc(C(=O)CN2C(=O)C(=O)N(Cc3ccco3)C2=O)c(C)n1CCc1ccc(F)cc1	0.505%
Cc1ccsc1/C=C(\C(=O)c1ccc(OC(C)C)cc1)c1nc2ccccc2o1	14%
S=C(NCCc1cnc[nH]1)NC1CCCC1	27.4%
COc1ccc(-n2ncc3c(=O)n(CC(=O)Nc4ccc(S(=O)(=O)N5CCOCC5)cc4)cnc32)cc1	5.95%
CN1C(=O)C(=O)N(CC(=O)N2CCc3ccccc32)C1=O	11.2%
Clc1ccc(-c2ccc(SCc3ccccn3)nn2)cc1	10.8%
O=C(NCCC1=CCCCC1)C1CCCN(S(=O)(=O)c2cccc3cccnc23)C1 (centres unmarked)	-6.25%
Cc1ccc(C(=O)O/N=C/c2c(C)nn(C)c2Cl)cc1	6.18%
CC(=O)COc1ccc2c(c1C)O/C(=C\c1ccco1)C2=O	13.4%
CCOC(=O)CN1C(=O)C(O)(CC(=O)c2ccccn2)c2ccccc21 (centres unmarked)	7.77%

SMILES	hERG current change (%, negative = inhibition) at 1uM
CCn1cc(Cl)c(C(=O)Nc2ccc(OC)c(OC)c2)n1	11.4%
CN1CCN(C=NC2=NN(c3cccc(C(F)(F)F)c3)CC2)CC1	0.21%
COC(=O)c1ccc(/C=N/NC(=O)CC(=O)NC2CCCCC2)cc1	22%
N/C(=N\OC(=O)CSc1ccccc1)c1ccncc1	-1.19%
Cc1ccc(S(=O)(=O)N(CC(=O)NCc2ccccc2Cl)C(=O)N2CCN(C)CC2)cc1	-7.39%
COc1cccc(Cn2cnc3c(sc4nc(C)cc(C)c43)c2=O)c1	11.3%
COc1ccccc1-c1cc(-c2ccc(C)cc2)nc(SCc2nnc(-c3ccccc3)o2)c1C#N	15.9%
COc1ccc(CN2CC(C(=O)NCCC(C)C)CC2=O)cc1 (centres unmarked)	15.3%
CCN(Cc1cccs1)C(=O)c1cccc(S(=O)(=O)N2CCN(C)CC2)c1	-1.76%
CC1CCc2[nH]c3ccc(C(=O)N(C)CC(=O)Nc4ccccc4Br)cc3c2C1 (centres unmarked)	12.6%
COc1ccc(-c2nc3n(n2)C(c2ccncc2)C(C(N)=O)=C(C)N3)cc1 (centres unmarked)	9.3%
COc1ccccc1/C=C1\SC(=S)N(CCC(=O)NCCCn2ccnc2)C1=O	2.94%
COc1ccc(CCNC(=O)COc2ccc(-c3ccc(C)cc3)cc2)cc1OC	-3.64%
O=C(O)c1cccc(-c2ccc(/C=c3/sc4nc5ccccc5n4c3=O)o2)c1	14.2%
COc1ccc(Nc2nc(C(=O)NCc3ccco3)cs2)cc1	4.7%
CC(=O)Nc1ccc(S(=O)(=O)Nc2nc3ccccc3nc2Nc2cccc(O)c2)cc1	11%
O=[N+]([O-])c1ccc(O)c(C=Nc2cccc3ncccc23)c1	12.3%
O=C(NN=C1CCCCCCC1)c1ccc(F)cc1	9.56%
O=C(COC(=O)c1cnccn1)Nc1ccc(Cl)cc1	8.01%
Cc1ccc2nc(Cl)c(/C=N/NC(=O)c3ccccc3O)cc2c1	10.4%
CCOc1ccc(N/C(SC)=C(/C#N)C(N)=O)cc1	9.27%
O=C(NCCC1=CCCCC1)c1cc(COc2ccc(F)cc2Cl)on1	12%

SMILES	hERG current change (%, negative = inhibition) at 1uM
CC(C)NC(=O)[C@]1(C)CCC[C@@]2(C)C3CC[C@@]4(C)C[C@]3(CCC21)CC4=O (some centres unmarked)	11.8%
CCN(C(=O)Cn1c(=O)n2nc(CCn3nc(C)cc3C)nc2c2ccccc21)c1cccc(C)c1	-2.44%
CCCn1c(SCC(=O)Nc2ccc(C)c(S(=O)(=O)N3CCOCC3)c2)n[nH]c1=O	11.3%
CC(=O)Nc1ccc(OCC(=O)c2ccc(C)cc2C)cc1	4.25%
Cc1cc(C)n(CC(O)CN2c3ccccc3Sc3ccccc32)n1 (centres unmarked)	15.5%
O=C(Nc1cc(N2CCOCC2)ncn1)NC1(C(F)(F)F)Oc2ccc(Cl)cc2O1 (centres unmarked)	6.46%
CCn1c(SCC(=O)c2c(N)n(C3CC3)c(=O)[nH]c2=O)nnc1-c1ccccc1OC	10.7%
Cc1sc2ncnc(SCC(=O)NNC(=O)c3ccco3)c2c1C	-0.404%
O=c1cc(-c2ccc3c(c2)OCO3)oc2ccccc12	3.12%
CCCCCCCCCNC(=O)[C@H](NC(=O)COc1ccccc1)[C@@H]1NC(C(=O)OC)C(C)(C)S1 (some centres unmarked)	20.4%
COc1ccc(CNC(=O)C(c2ccncc2)N(C(=O)Cc2cccs2)c2ccccc2C)cc1 (centres unmarked)	0.574%
COC(=O)c1cn(C)c2ccc(S(=O)(=O)N3CCCC3)cc2c1=O	1.28%
O=C(NCCc1ccc(Cl)cc1)C(=O)Nc1cc2c3c(c1)CC(=O)N3CCC2	9.31%
CN(C)C(=O)CSc1nc2ccc(N3C(=O)c4ccccc4C3=O)cc2s1	10.8%
CCOC(=O)C1CCN(C(=O)Nc2ccc3c(c2)nc(C)n3C)CC1	7.22%
O=C(Nc1ccc2ccccc2c1)N1CCCN(CCOc2ccccc2)CC1	-48.1%
Cc1c(C#N)c2ccccc2n1CC(=O)N1CCCC1	10.5%
C/C(=C\C(=O)c1ccc(Br)cc1)NCc1ccc(C)cc1	11%
CC(C)CCn1cnc2c(oc3nc4c(cc32)CCCC4)c1=O	3.93%
CCC(C)NC(=O)C1(C)CCC(=O)N1CCc1ccc(OC)c(OC)c1 (centres unmarked)	-7.7%
